Data published in PubChem BioAssay AID1159554 (Broad Institute, 2015).
Hit rate of the full screen: of about 94,000 compounds, about 2,100 (2.2%) were called active. Inconclusive means that the source gave no clear call. Such entries were picked first, then a sample of the others. Rule as the data show it: active = activity change below about -80%; inconclusive = no clear call, values can overlap the other calls; inactive = above that.

Test: P. falciparum Dd2 growth inhibitors, primary screen, SYBR Green fluorescence, single dose replicates (AID 1159554)
Conditions: 72 h, at 10 µM, stronger effect = lower value

Q: Which activity change does the source give for `COc1ccccc1S(=O)(=O)N(C)C[C@H]1OCc2cn(nn2)CCCC(=O)N([C@@H](C)CO)C[C@@H]1C` here?
A: active: -89.2%

Q: Which activity change does the source give for `COc1ccc(C#Cc2ccc3c(c2)[C@H]2[C@H](CCN2Cc2nccs2)[C@@H](CO)N3)cc1` here?
A: inconclusive: -80.3%

Q: With `C[C@@H]1CCCCO[C@H](CN(C)Cc2ccccc2)[C@@H](C)CN([C@H](C)CO)C(=O)c2cc(NC(=O)CCCCCC(=O)Nc3ccccc3N)ccc2O1` as the molecule, how does the activity change read?
A: active: -82.6%

Q: For `Cc1ccc(S(=O)(=O)N(C)C[C@H]2OCCCC[C@H](C)Oc3ccc(NC(=O)CCC(F)(F)F)cc3C(=O)N([C@@H](C)CO)C[C@H]2C)cc1`, which activity change is on record?
A: inconclusive: -80%

Q: For `C[C@@H]1CN([C@H](C)CO)C(=O)c2cc(C#Cc3ccccc3F)cnc2O[C@H]1CN(C)C(=O)Cc1ccncc1`, which activity change is on record?
A: active: -83.7%

Q: With `C[C@@H]1CN([C@H](C)CO)C(=O)c2cc(NS(=O)(=O)c3ccccc3)ccc2O[C@@H]1CN(C)Cc1ccc(C(=O)Nc2ccccc2N)cc1` as the molecule, how does the activity change read?
A: inconclusive: -80.1%

Q: Which activity change does the source give for `COCC#Cc1ccc2c(c1)O[C@@H](CN(C)CC1CCCC1)[C@H](C)CN([C@@H](C)CO)S2(=O)=O` here?
A: inconclusive: -81.1%

Q: For `COc1ccc(CN(C)C[C@@H]2OCCCC[C@@H](C)Oc3ccc(NS(=O)(=O)c4c(C)noc4C)cc3C(=O)N([C@@H](C)CO)C[C@@H]2C)cc1`, which activity change is on record?
A: inactive: -50%

Q: With `C[C@@H]1CN([C@H](C)CO)C(=O)c2c(c3ccccc3n2C)-c2ccccc2CO[C@H]1CN(C)Cc1ccc(Cl)c(Cl)c1` as the molecule, how does the activity change read?
A: active: -88.7%

Q: Which activity change does the source give for `C[C@@H]1CN([C@@H](C)CO)C(=O)Cc2cc(NC(=O)Nc3cccc4ccccc34)ccc2O[C@H]1CN(C)CC1CCCCC1` here?
A: inconclusive: -80.3%

Q: For `C[C@@H]1CCCCO[C@@H](CN(C)S(=O)(=O)c2ccc(Cl)cc2)[C@@H](C)CN([C@@H](C)CO)C(=O)c2cc(NC(=O)C3CCCCC3)ccc2O1`, which activity change is on record?
A: active: -80.9%

Q: With `COc1ccc2c3c(n(C)c2c1)[C@H](CO)N(Cc1ccccc1F)CC31CN(C(=O)C2CCC2)C1` as the molecule, how does the activity change read?
A: inactive: -14.5%

Q: Which activity change does the source give for `Cc1cccc(-c2ccc([C@H]3[C@@H](CO)N4CCCCN(C(=O)c5ccc6c(c5)OCO6)C[C@H]34)cc2)c1` here?
A: inactive: -33.8%

Q: Which activity change does the source give for `COc1ccc2c3c(n(C)c2c1)[C@@H](CO)N(C(=O)Nc1ccc(F)cc1)CC31CCN(C(=O)NC2CCCC2)CC1` here?
A: inconclusive: -80.3%

Q: With `O=C(c1ccc(F)cc1)N1CC(=O)N2[C@H](CO)[C@H](c3ccc(C#Cc4ccc(F)cc4)cc3)[C@H]2C1` as the molecule, how does the activity change read?
A: active: -90.8%

Q: Which activity change does the source give for `C[C@@H]1CCCCO[C@@H](CN(C)C(=O)Nc2ccc3c(c2)OCO3)[C@@H](C)CN([C@@H](C)CO)C(=O)c2cc(NC(=O)Nc3ccc4c(c3)OCO4)ccc2O1` here?
A: inactive: -74.5%

Q: Which activity change does the source give for `O=C(C1CC1)N1CC(=O)N2[C@H](CO)[C@H](c3ccc(-c4ccccc4F)cc3)[C@H]2C1` here?
A: inactive: -50.8%

Q: With `CCC(=O)N[C@H]1CC[C@H](CC(=O)NCC2CC2)O[C@H]1CO` as the molecule, how does the activity change read?
A: inactive: -11.9%

Q: With `CC(C)NC(=O)Nc1ccc2c(c1)CC(=O)N([C@@H](C)CO)C[C@@H](C)[C@H](CN(C)Cc1ccc(Oc3ccccc3)cc1)O2` as the molecule, how does the activity change read?
A: inconclusive: -80.1%

Q: Which activity change does the source give for `OC[C@H]1CC[C@@H]2O[C@H](CCc3ccc(C#CCc4ccccc4)cc3)[C@@H](n3cc(-c4ccccc4)nn3)C[C@@H]2O1` here?
A: inconclusive: -81.6%

Q: With `COc1ccc(NC(=O)N(C)C[C@@H]2Oc3c(NS(=O)(=O)c4cccs4)cccc3C(=O)N([C@H](C)CO)C[C@@H]2C)cc1` as the molecule, how does the activity change read?
A: inactive: -19.4%

Q: For `C[C@H](CO)N1C[C@H](C)[C@H](CN(C)CC2CC2)Oc2cc(-c3ccc(C#N)cc3)ccc2S1(=O)=O`, which activity change is on record?
A: inconclusive: -83.5%

Q: Which activity change does the source give for `CN1C(=O)c2cc(NC(=O)c3ccccc3Cl)ccc2OC[C@@H]2O[C@H](CC(=O)O)CC[C@@H]21` here?
A: inactive: -0.698%

Q: With `CCCNC(=O)c1cc2c(c(-c3cccc(-c4cc5ccccc5o4)c3)n1)[C@@H](CCO)N(C(=O)NC(C)C)C2` as the molecule, how does the activity change read?
A: inconclusive: -80.5%

Q: Which activity change does the source give for `O=S(=O)(c1ccc(-c2ccccc2)cc1)N1C[C@@H]2N[C@H](C1)[C@@H]2c1ccc(-c2cccnc2)cc1` here?
A: inconclusive: -80.2%

Q: Which activity change does the source give for `COc1ccc(NC(=O)N2C[C@H]3[C@@H](c4ccccc42)[C@H](CO)N3C(=O)C2CC2)cc1` here?
A: inactive: -3.12%

Q: With `CC(C)NC(=O)Nc1cccc2c1O[C@H](CN(C)S(=O)(=O)c1ccc(Cl)cc1)[C@H](C)CN([C@H](C)CO)C2=O` as the molecule, how does the activity change read?
A: inactive: -2.32%

Q: For `Cc1noc(C)c1S(=O)(=O)Nc1cccc2c1O[C@@H](CN(C)Cc1ccc(Oc3ccccc3)cc1)[C@@H](C)CN([C@H](C)CO)C2=O`, which activity change is on record?
A: inconclusive: -80.7%

Q: With `C[C@@H]1CCCCO[C@H](CN(C)C(=O)Nc2ccc(F)cc2)[C@H](C)CN([C@H](C)CO)C(=O)c2cc(NC(=O)c3ccccc3)ccc2O1` as the molecule, how does the activity change read?
A: inconclusive: -81.4%

Q: Which activity change does the source give for `C[C@H]1CN([C@@H](C)CO)C(=O)c2cc(C#CC(C)(C)O)cnc2O[C@H]1CN(C)Cc1cncnc1` here?
A: inconclusive: -80.6%

Q: For `C[C@H]1CCCCO[C@H](CN(C)S(=O)(=O)c2ccc(Cl)cc2)[C@@H](C)CN([C@@H](C)CO)C(=O)c2cc(NC(=O)Nc3ccc(F)cc3)ccc2O1`, which activity change is on record?
A: inactive: -71.8%

Q: Which activity change does the source give for `COc1ccc2c3c(n(C)c2c1)[C@H](CO)NCC31CN(Cc2cc(-c3ccccc3)on2)C1` here?
A: inconclusive: -82%

Q: Which activity change does the source give for `C[C@@H]1CN([C@@H](C)CO)C(=O)c2cccc(NC(=O)C3CC3)c2O[C@H]1CN(C)Cc1ccc(C(F)(F)F)cc1` here?
A: inconclusive: -80%

Q: For `C[C@@H]1CN([C@H](C)CO)C(=O)c2cc(NC(=O)Nc3cccc4ccccc34)ccc2O[C@@H](C)CCCCO[C@H]1CN(C)Cc1ccc(C(F)(F)F)cc1`, which activity change is on record?
A: active: -84.9%

Q: Which activity change does the source give for `C[C@@H]1CN([C@@H](C)CO)S(=O)(=O)c2ccc(C#Cc3ccccc3)cc2O[C@@H]1CN(C)C` here?
A: inactive: -57.2%

Q: With `C[C@@H]1CCCCO[C@@H](CN(C)S(=O)(=O)c2cccs2)[C@@H](C)CN([C@@H](C)CO)C(=O)c2cc(NC(=O)NC3CCCCC3)ccc2O1` as the molecule, how does the activity change read?
A: inconclusive: -81.1%

Q: With `C[C@H]1CCCCO[C@@H](CN(C)C(=O)Nc2ccc(C(F)(F)F)cc2)[C@@H](C)CN([C@@H](C)CO)C(=O)c2cc(NC(=O)NC3CCCCC3)ccc2O1` as the molecule, how does the activity change read?
A: inactive: -45.1%

Q: Which activity change does the source give for `C[C@@H]1CCCCO[C@H](CN(C)CC2CC2)[C@H](C)CN([C@@H](C)CO)C(=O)c2cc(NC(=O)Nc3ccccc3)ccc2O1` here?
A: inconclusive: -82%

Q: With `C[C@@H]1CN([C@@H](C)CO)C(=O)c2cc(NC(=O)Nc3ccc4c(c3)OCO4)ccc2O[C@@H](C)CCCCO[C@@H]1CN(C)Cc1ccc2c(c1)OCO2` as the molecule, how does the activity change read?
A: inconclusive: -81%

Q: Which activity change does the source give for `COc1ccc(S(=O)(=O)N(C)C[C@@H]2OCCCC[C@@H](C)Oc3ccc(NC(=O)Cc4ccccc4)cc3C(=O)N([C@@H](C)CO)C[C@@H]2C)cc1` here?
A: inconclusive: -81.6%

Q: Which activity change does the source give for `CCCNC(=O)N1CC2(CCN(C(=O)CN(C)C)CC2)c2c(n(C)c3cc(OC)ccc23)[C@H]1CO` here?
A: active: -88.2%

Q: With `COc1ccc(S(=O)(=O)Nc2ccc3c(c2)C(=O)N([C@@H](C)CO)C[C@H](C)[C@H](CN(C)S(=O)(=O)c2ccc(OC)cc2)OCCCC[C@H](C)O3)cc1` as the molecule, how does the activity change read?
A: inactive: -65.4%

Q: With `COc1ccc(NC(=O)Nc2ccc3c(c2)C(=O)N([C@H](C)CO)C[C@@H](C)[C@@H](CN(C)C(=O)C2CCCCC2)OCCCC[C@H](C)O3)cc1` as the molecule, how does the activity change read?
A: inconclusive: -80.2%

Q: For `CCS(=O)(=O)N1CC2(CN(Cc3ccc4c(c3)OCO4)[C@H](CO)c3[nH]c4cc(OC)ccc4c32)C1`, which activity change is on record?
A: inconclusive: -81.2%

Q: With `Cc1noc(C)c1S(=O)(=O)Nc1ccc2c(c1)C(=O)N([C@@H](C)CO)C[C@H](C)[C@@H](CN(C)C(=O)Nc1cccc3ccccc13)OCCCC[C@H](C)O2` as the molecule, how does the activity change read?
A: active: -88.5%

Q: Which activity change does the source give for `C[C@H]1CN([C@@H](C)CO)C(=O)c2cccc(NC(=O)CCCCCC(=O)Nc3ccccc3N)c2O[C@@H]1CN(C)S(=O)(=O)c1ccc(Cl)cc1` here?
A: inconclusive: -83.6%

Q: Which activity change does the source give for `C[C@@H]1CN([C@H](C)CO)S(=O)(=O)c2ccc(C#Cc3ccncc3)cc2O[C@@H]1CN(C)C(=O)C1CCOCC1` here?
A: inconclusive: -83.3%

Q: With `CC(C)NC(=O)N(C)C[C@@H]1OCCCC[C@@H](C)Oc2ccc(NC(=O)C3CCCCC3)cc2C(=O)N([C@H](C)CO)C[C@@H]1C` as the molecule, how does the activity change read?
A: inactive: -10.2%

Q: For `COCC(=O)N1[C@@H](CO)[C@@H](c2ccccc2)[C@@H]1CNC(=O)c1ccccn1`, which activity change is on record?
A: inactive: 7.71%

Q: Which activity change does the source give for `C[C@H](CO)N1C[C@H](C)[C@@H](CN(C)S(=O)(=O)c2ccc(Cl)cc2)Oc2c(NC(=O)CCCCCC(=O)Nc3ccccc3N)cccc2C1=O` here?
A: inconclusive: -81.2%

Q: With `OC[C@@H]1[C@@H](c2ccc(C#CC3CCCC3)cc2)[C@H]2CN(CCC(F)(F)F)CCCCN12` as the molecule, how does the activity change read?
A: inconclusive: -82.2%

Q: With `OC[C@H]1[C@@H](c2ccc(C#CC3(O)CCCC3)cc2)[C@@H]2CN(Cc3ccccc3F)CCCCN12` as the molecule, how does the activity change read?
A: inactive: -46.5%

Q: With `COc1ccc2c3c(n(C)c2c1)[C@@H](CO)N(C(=O)Nc1ccc(F)cc1)CC31CN(Cc2cccc(F)c2)C1` as the molecule, how does the activity change read?
A: inactive: 6.85%

Q: Which activity change does the source give for `C[C@H]1CN([C@@H](C)CO)S(=O)(=O)c2ccc(C#Cc3ccc(F)cc3)cc2O[C@H]1CN(C)C(=O)NC1CCCC1` here?
A: inconclusive: -80.9%

Q: With `COc1ccccc1C#Cc1ccc([C@@H]2[C@@H](CO)N(C(=O)C3CCC3)[C@H]2C#N)cc1` as the molecule, how does the activity change read?
A: inactive: -66.6%
